Source: patent publication EP3298025B1, “NEW AMINO ACID SEQUENCES WITH MI[…] DERIVED FROM NAJA ATRA CARDIOTOXIN 1 (CTX-1)” (Università degli Studi di Parma, priority 2015, dated 2016)
Several values for one entry are separate records, joined by “and”; a condition that tells them apart may be missing. Equal values may be shown once. At least one peptide structure holds a part that was inferred or is arguable (an end, a ring closure or a residue). No end group written: not given here.

Columns and labels:
Assay type in all cases: cell-based
E. coli ML-35pYC = assay: membrane permeabilization assay (CENTA outer membrane, ONPG inner membrane); settings: peptide 12.5 µg/ml; absorbance every 10 minutes for 240 minutes
Description: Methods: to test the bacterial membrane permeabilization caused by the peptides of the invention, E. coli ML-35pYC strain was used. This bacterial strain express ampicillin resistence, a constitutive expression of cytoplasmic β-galactosidase and is engineered with a plasmid for a periplasmic β-lactamase synthesis. Sixty microliters (60 µl) of bacterial suspension, containing E. coli ML-35pYC strain, were added to 60 µl of ONPG solution (15 mM) or to 60 µl of CENTA (1,5 mM) diluted in phosphate buffer. Subsequently 120 µl of the examined peptide were added, to obtain a final concentration of 12.5 µg/ml (NCP-2=5,4 µM, NCP-3=5.2 µM). The absorbance value was registered at […] for ONPG and at 405 nm for CENTA, every 10 minutes for 240 minutes to assess the reaction's kinetics.

[1] = system: Enterococcus hirae ATCC 10541; assay: micro-dilution in liquid medium and transplant on solid medium, Gram-positive bacteria; settings: 2 hours at 37°C, transplant on agar
Description: (§1) For each bacterial strain 3-5 morphologically similar colonies from fresh cultures were taken and inoculated in Brain Heart Infusion broth, then incubated at 37°C in agitation at 225 r.p.m. for about 3-4 hours. Then the bacterial suspension was centrifuged at 1000 G for 20 minutes and the pellet resuspended in phosphate buffer pH 7, 10 mM. The turbidity of the bacterial suspension was measured using a spectrophotometer with absorbance of 600 nm; the range 0,08-0,13 equates to about 10^8 cfu/ml. The bacterial suspension was diluted 1:100 in phosphate buffer 10mM to obtain a bacterial concentration of about 10^6 cfu/ml. Within 30 minutes 50 µl of the suspension 10^6 cfu/ml were inoculated in each well of the microtiter plate, to obtain a bacterial concentration of about 5x10^5 cfu/ml.
(§2) The peptides ability to inhibit the bacterial growth in liquid cultures was tested. 50 µl of each peptides solutions of about 0.2-50 µM were added in microtiter plates with 96 wells with liquid culture medium and one of these bacterial strains: Staphylococcus aureus ATCC 25923, MRSA ATCC 43300, Streptococcus agalactiae ATCC 13813 and Enterococcus hirae ATCC 10541. After 2 hours of incubation at 37°C, bacterial suspensions were put on solid culture medium. Bacterial cultures were cultivated without peptides as growth control.
(§3) The bacterial suspension and differing peptides concentrations were put in contact for about 2 hours at 37°C. After this incubation, 20 µl from each well of the plate were transplanted on solid culture medium, Columbia agar with 5% of bovine erythrocytes for Gram-positive bacteria. The inoculum was evenly distributed on the agar medium with the aid of a sterile disposable handle. After an incubation time of 24 hours at 37°C, the bacterial colonies (cfu) were counted.

[2] = system: Streptococcus agalactiae ATCC 13813; assay: as above; settings: 2 hours at 37°C, transplant on agar
Description: as §1, §2, §3

[3] = system: Staphylococcus aureus ATCC 22953; assay: as above; settings: 2 hours at 37°C, transplant on agar
Description: as §1, §2, §3

[4] = system: Pseudomonas aeruginosa ATCC 27853; assay: antimicrobial activity in presence of Muller-Hinton 20%
Description: (§4) This example verifies the peptides antimicrobial activity in presence of a concentration of 20% of Muller-Hinton liquid medium, characterized by the presence of salts with high concentration.
(§5) Peptides were tested in the ability to inhibit bacterial growth in liquid medium. 50 µl of peptides at a concentration between 3.1 µg/ml (NCP-0=1.4µM; NCP-2=[…]; NCP-3=1.3 µM) and 100 µg/ml (NCP-0=46.3 µM; NCP-2=43.2 µM; NCP-3=41.6 µM) were added in microtiter plate wells with phosphate buffer 10 mM with Muller-Hinton liquid medium al the final concentration of 20% and one of these bacteria: E. coli ATCC 25922, Pseudomonas aeruginosa ATCC 27853, Staphylococcus aureus ATCC 25923 and Staphylococcus aureus methicillin resistant ATCC 43300. After 2 hours incubation at 37°C, bacteria were transplanted on solid culture medium. Bacterial cultures were cultivated without peptides as growth control.

E. coli ATCC 25922 [5] = assay: as above
Description: as §4, §5

[6] = system: Staphylococcus aureus ATCC 25923; assay: as above
Description: as §4, §5

E. coli ATCC 25922 [7] = assay: antimicrobial activity in presence of NaCl
Description: (§6) Peptides were tested in the ability to inhibit bacterial growth in liquid medium. 50 µl of peptides at a concentration between 0.2 µM and 50 µM were […] E. coli ATCC 25922, Pseudomonas aeruginosa ATCC 27853 and Staphylococcus aureus methicillin resistant ATCC 43300. After 2 hours incubation at 37°C, bacteria were plated on solid culture medium. Bacterial cultures were cultivated without peptides as growth control.
(§7) The bacterial suspension and peptides at differing concentrations were put in contact for about 2 hours at 37°C. After this incubation, 20 µl from every well of the plate were transplanted on solid culture medium, McConkey agar for Gram-negative and Columbia agar with 5% of bovine erythrocytes for Gram-positive bacteria. The inoculum was evenly distributed on the agar medium using a single use sterile handle. After an incubation time of 24 hours at 37°C, the bacterial colonies (cfu) were counted.

[8] = system: Pseudomonas aeruginosa ATCC 27853; assay: antimicrobial activity in presence of NaCl
Description: as §6, with “concentration” for “concentration between 0.2 µM and 50 µM were”
as §7

[9] = 20% of Muller-Hinton medium, peptide 3.1 µg/ml
[10] = 20% of Muller-Hinton medium, peptide 6.3 µg/ml
[11] = 20% of Muller-Hinton medium, peptide 12.5 µg/ml
[12] = 20% of Muller-Hinton medium, peptide 100 µg/ml
[13] = 125 mM NaCl, peptide 12.5 µg/ml
[14] = 250 mM NaCl, peptide 12.5 µg/ml
[15] = phosphate buffer without MH medium, peptide 3.1 µg/ml
[16] = phosphate buffer without MH medium, peptide 6.3 µg/ml
[17] = phosphate buffer without MH medium, peptide 12.5 µg/ml
[18] = phosphate buffer without MH medium, peptide 100 µg/ml

## KLIPILSKTIPAIKNLFYKI [NCP-2]
E. coli ML-35pYC
  damage to the inner membrane (ONPG): destructive action on the inner membrane
  damage to the outer membrane (CENTA): penetration of the outer membrane without destruction of the membrane itself
[1]
  LD90: 155.09 µg/ml and 65.6 µM
  LD99: 240.12 µg/ml and 103.7 µM
[2]
  LD90: 4.91 µg/ml and 2.1 µM
[3]
  LD90: 36.81 µg/ml and 15.9 µM
  LD99: 50 µg/ml and 21.2 µM
[4]; [9]
  Antimicrobial activity (% to control): 0%
[4]; [10]
  Antimicrobial activity (% to control): 0%
[4]; [11]
  Antimicrobial activity (% to control): 0%
[4]; [12]
  Antimicrobial activity (% to control): 86.7%
E. coli ATCC 25922 [5]; [9]
  Antimicrobial activity (% to control): 91%
E. coli ATCC 25922 [5]; [10]
  Antimicrobial activity (% to control): 99.1%
E. coli ATCC 25922 [5]; [11]
  Antimicrobial activity (% to control): 100%
E. coli ATCC 25922 [5]; [12]
  Antimicrobial activity (% to control): 100%
[6]; [9]
  Antimicrobial activity (% to control): 0%
[6]; [10]
  Antimicrobial activity (% to control): 0%
[6]; [11]
  Antimicrobial activity (% to control): 0%
[6]; [12]
  Antimicrobial activity (% to control): 0%
E. coli ATCC 25922 [7]; 10 mM NaCl, peptide 12.5 µg/ml
  Antimicrobial activity (% to control): 73%
E. coli ATCC 25922 [7]; 10 mM NaCl, peptide 100 µg/ml
  Antimicrobial activity (% to control): 95%
E. coli ATCC 25922 [7]; [13]
  Antimicrobial activity (% to control): 51%
E. coli ATCC 25922 [7]; 125 mM NaCl, peptide 100 µg/ml
  Antimicrobial activity (% to control): 70%
E. coli ATCC 25922 [7]; [14]
  Antimicrobial activity (% to control): 43%
E. coli ATCC 25922 [7]; 250 mM NaCl, peptide 100 µg/ml
  Antimicrobial activity (% to control): 680%
[8]; 10 mM NaCl, peptide 12.5 µg/ml
  Antimicrobial activity (% to control): 95%
[8]; 10 mM NaCl, peptide 100 µg/ml
  Antimicrobial activity (% to control): 98%
[8]; [13]
  Antimicrobial activity (% to control): 86%
[8]; 125 mM NaCl, peptide 100 µg/ml
  Antimicrobial activity (% to control): 90%
[8]; [14]
  Antimicrobial activity (% to control): 65%
[8]; 250 mM NaCl, peptide 100 µg/ml
  Antimicrobial activity (% to control): 78%

## KLIWILSKTIPAIKNLFYKI [NCP-3]
E. coli ML-35pYC
  damage to the inner membrane (ONPG): lithic action on the inner and outer membranes
  damage to the outer membrane (CENTA): lithic action on the inner and outer membranes
[1]
  LD90: 0.8 µg/ml and 0.3 µM
  LD99: 1.6 µg/ml and 0.7 µM
[2]
  LD90: 0.8 µg/ml and 0.3 µM
  LD99: 1.6 µg/ml and 0.7 µM
[3]
  LD90: 0.8 µg/ml and 0.3 µM
  LD99: 1.6 µg/ml and 0.7 µM
[4]; [9]
  Antimicrobial activity (% to control): 66.7%
[4]; [10]
  Antimicrobial activity (% to control): 98%
[4]; [11]
  Antimicrobial activity (% to control): 100%
[4]; [12]
  Antimicrobial activity (% to control): 100%
[4]; [15]
  Antimicrobial activity (% to control): 93.8%
[4]; [16]
  Antimicrobial activity (% to control): 98%
[4]; [17]
  Antimicrobial activity (% to control): 100%
[4]; [18]
  Antimicrobial activity (% to control): 100%
E. coli ATCC 25922 [5]; [9]
  Antimicrobial activity (% to control): 100%
E. coli ATCC 25922 [5]; [10]
  Antimicrobial activity (% to control): 100%
E. coli ATCC 25922 [5]; [11]
  Antimicrobial activity (% to control): 100%
E. coli ATCC 25922 [5]; [12]
  Antimicrobial activity (% to control): 100%
E. coli ATCC 25922 [5]; [15]
  Antimicrobial activity (% to control): 100%
E. coli ATCC 25922 [5]; [16]
  Antimicrobial activity (% to control): 100%
E. coli ATCC 25922 [5]; [17]
  Antimicrobial activity (% to control): 100%
E. coli ATCC 25922 [5]; [18]
  Antimicrobial activity (% to control): 100%
[6]; [9]
  Antimicrobial activity (% to control): 58.3%
[6]; [10]
  Antimicrobial activity (% to control): 94.3%
[6]; [11]
  Antimicrobial activity (% to control): 100%
[6]; [12]
  Antimicrobial activity (% to control): 100%
[6]; [15]
  Antimicrobial activity (% to control): 98.3%
[6]; [16]
  Antimicrobial activity (% to control): 100%
[6]; [17]
  Antimicrobial activity (% to control): 100%
[6]; [18]
  Antimicrobial activity (% to control): 100%
E. coli ATCC 25922 [7]; 10 mM NaCl, peptide 12.5 µg/ml
  Antimicrobial activity (% to control): 100%
E. coli ATCC 25922 [7]; 10 mM NaCl, peptide 100 µg/ml
  Antimicrobial activity (% to control): 100%
E. coli ATCC 25922 [7]; [13]
  Antimicrobial activity (% to control): 100%
E. coli ATCC 25922 [7]; 125 mM NaCl, peptide 100 µg/ml
  Antimicrobial activity (% to control): 100%
E. coli ATCC 25922 [7]; [14]
  Antimicrobial activity (% to control): 96.75%
E. coli ATCC 25922 [7]; 250 mM NaCl, peptide 100 µg/ml
  Antimicrobial activity (% to control): 100%
[8]; 10 mM NaCl, peptide 12.5 µg/ml
  Antimicrobial activity (% to control): 100%
[8]; 10 mM NaCl, peptide 100 µg/ml
  Antimicrobial activity (% to control): 100%
[8]; [13]
  Antimicrobial activity (% to control): 100%
[8]; 125 mM NaCl, peptide 100 µg/ml
  Antimicrobial activity (% to control): 100%
[8]; [14]
  Antimicrobial activity (% to control): 100%
[8]; 250 mM NaCl, peptide 100 µg/ml
  Antimicrobial activity (% to control): 100%
